Read-outs that look alike come from different tables or passages of the source.
Assays:
Test in all cases: SPR (Biacore 8K), VHH-Fc captured, TfR apical domain as analyte
[1] = target: T1, human transferrin receptor apical domain (human, UniProt P02786 198-378, limits assumed)
T1 construct: domain: apical domain; Soluble analyte in SPR; also called huTfR-AD; human TfR apical domain
Description: (§1) A set of experiments was performed to assess the binding affinities of VHH-Fc fusions for human and cyno TfR apical domain. In these experiments, binding affinities were determined by surface plasmon resonance using a Biacore™ 8K instrument in 1×HBS-EP+running buffer (GE Healthcare Cat. No. BR100669). Biacore™ Series S CM5 sensor chips were treated with a Human antibody capture kit (GE Healthcare, Cat. No. BR100839). VHH-Fc fusions were captured on each flow cell and serial 3-fold dilutions of human and cyno TfR apical domain (300, 100, 33, 11, 3.7, and 0 nM) were injected at a flow rate of 30 μL/min using the multi cycle kinetics method. Each sample was analyzed with a 270-second association and a 10-minute dissociation. Some VHH-Fc fusions were measured with serial 3-fold dilutions of human and cyno TfR apical domain (100, 33, 11, and 0 nM) with a 300-second association and 10-minute dissociation. After each cycle, the chip was regenerated using 3 M magnesium chloride for 30 seconds at 50 μL/minute. Binding response was corrected by subtracting the RU from a reference flow cell. A 1:1 Langmuir model of simultaneous fitting of kₒₙ and koff was used for kinetics analysis using Biacore™ 8K Evaluation Software.

[2] = target: T2, cynomolgus transferrin receptor apical domain (cynomolgus, UniProt A0A2K5X958 198-378)
T2 construct: domain: apical domain; Soluble analyte in SPR; also called cyTfR-AD; cyno TfR apical domain
Description: as §1

[3] = target: T1, human transferrin receptor apical domain; remark: listed apart in the source
Description: as §1
(§2) The variable domains containing the mutation were sub-cloned onto the corresponding constant heavy domains of human IgG1. The heavy chain plasmids were transfected in Expi293 cells. Supernatants were collected after five days and monoclonal antibodies were purified by protein A chromatography. In order to assess affinities of the B07 mutants for human and cyno TfR apical domain, binding affinities were determined by surface plasmon resonance using a Biacore™ 8K instrument as described herein.

[4] = target: T2, cynomolgus transferrin receptor apical …; remark: listed apart in the source
Description: as §1, §2

[5] = target: T1, human transferrin receptor apical domain; remark: listed apart in the source
Description: as §1

[6] = target: T2, cynomolgus transferrin receptor apical …; remark: listed apart in the source
Description: as §1

[7] = target: T1, human transferrin receptor apical domain; remark: listed apart in the source
Description: as §1

[8] = target: T2, cynomolgus transferrin receptor apical …; remark: listed apart in the source
Description: as §1

T1 sequence (P02786 198-378 limits assumed): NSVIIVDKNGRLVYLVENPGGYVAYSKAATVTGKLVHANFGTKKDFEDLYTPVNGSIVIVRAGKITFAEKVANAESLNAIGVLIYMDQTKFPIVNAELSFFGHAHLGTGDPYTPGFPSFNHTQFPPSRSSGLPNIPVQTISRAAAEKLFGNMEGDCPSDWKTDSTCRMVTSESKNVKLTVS
T2 sequence (A0A2K5X958 entry or part of it): as the sequence (P02786 198-378 limits assumed) above, with R11G, Y50D, T51S, N95K, E97D, R128Q, R167K, S173N, N175S counted along it

Kd [1]: 1.04 nM
Kd [2]: 3.13 nM
Kd [3]: 0.8 nM
Kd [4]: 2 nM
Kd [5]: 0.8 nM
Kd [6]: 2 nM
Kd [7]: 0.9 nM
Kd [8]: 2.2 nM
B1: B07 VHH-Fc (Fc fusion)
chain: QVQLVESGGGLVQTGGSLRLSCTASGLTSDTGGMGWFRQAAGKERDFVSAITWSGRHTLYADSVKGRFNISRDKGKNTVFLQMNSLKPEDTAVYYCALDVVGIGIEVQTYDYWGQGTQVTVSSGGGGAS[sequence of human IgG1 Fc with changes omitted]
notes: Llama VHH fused to human IgG1 Fc; also called WT B07
